The values below come from the supplement of paper PMC3724861.

The other results are listed elsewhere or left out. Bounds are passed on as bounds.

This experiment relates to T1, Caupolican (Caup) homeodomain DNA-binding domain.
T1 sequence: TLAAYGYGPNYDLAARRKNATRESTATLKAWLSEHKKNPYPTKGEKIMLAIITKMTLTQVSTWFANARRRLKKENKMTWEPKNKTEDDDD
Description: PBM E-score (8-mer, recovered from the published 9-mer minima) (E-score (dimensionless, -0.5 to 0.5)); Drosophila protein; higher = stronger relative binding preference, active = 0.31 or more. A digest of the protocol:
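Caup's homeodomain DNA-binding domain (residues 214-303) was produced by in vitro transcription and translation and applied at 100 nM to custom-designed protein binding microarrays. Each value is an enrichment score giving relative binding preference for a short DNA word; higher means stronger. Published 9-mer scores were the minimum of their two constituent 8-mer scores, and the 8-mer values were recovered from those minima. A cutoff of 0.31 marks candidate binding sequences.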
With CTAGACAA, the “PBM E-score” value was inactive: 0.0936.

Consider CTAGTCGC, for which the “PBM E-score” value was inactive: -0.0329.

CGCTCGGA: the “PBM E-score” value is inactive: -0.127.

Consider CAGTTATA, for which the “PBM E-score” value was inactive: 0.103.

Turning to CCCGATAA, the “PBM E-score” value is inactive: -0.0184.

TCTGTGAA: the “PBM E-score” value is inactive: 0.0782.

Turning to TATATTCA, the “PBM E-score” value is inactive: 0.157.

In the case of GTATTGCA, the “PBM E-score” value is inactive: 0.114.

For the sequence CCAAGTGG, the “PBM E-score” value was inactive: -0.0542.

CAATAACG: the “PBM E-score” value was inactive: 0.0801.

CCGTAGAC: the “PBM E-score” value was inactive: -0.103.

Turning to ACCTTCCT, the “PBM E-score” value is inactive: -0.0679.

For the sequence AACCCCTC, the “PBM E-score” value was inactive: -0.0731.

As to AGTTCCAC, the “PBM E-score” value is inactive: 0.0412.

With TATATGGA, the “PBM E-score” value is inactive: 0.122.

TACGCTAA: the “PBM E-score” value was at least 0.0305.

In the case of ACGTGTTC, the “PBM E-score” value is inactive: 0.279.

In the case of CATCAGCG, the “PBM E-score” value was inactive: 0.00046.

In the case of CAAAAAAA, the “PBM E-score” value was inactive: 0.00316.

For the sequence AGATTCAC, the “PBM E-score” value was inactive: -0.0373.

Regarding AACCAGCC, the “PBM E-score” value was inactive: -0.0179.

With CGGCGCGC, the “PBM E-score” value was inactive: -0.198.

As for ATCCAAAC, the “PBM E-score” value was inactive: 0.0766.

In the case of CCAATACC, the “PBM E-score” value was inactive: -0.0694.

Consider GCACCGGA, for which the “PBM E-score” value was inactive: -0.174.

For CGAGTGGA, the “PBM E-score” value is inactive: -0.0323.

Consider CAACATGC, for which the “PBM E-score” value is active: 0.317.

For CTGTTTTA, the “PBM E-score” value was inactive: 0.107.

As to AAAAGGTC, the “PBM E-score” value was inactive: -0.0926.

Take TAGGCCGA: the “PBM E-score” value is inactive: -0.151.

On to CTTATTTA, for which the “PBM E-score” value is inactive: 0.0764.

Take CTTGTCCA: the “PBM E-score” value is inactive: 0.287.

Turning to CAACAATC, the “PBM E-score” value was inactive: 0.258.

For the sequence ACCTAGAT, the “PBM E-score” value was inactive: -0.00612.

As for CGTCCGTA, the “PBM E-score” value is inactive: -0.0112.

Take GTCACAGA: the “PBM E-score” value was inactive: 0.0877.

As to ATAGCGAA, the “PBM E-score” value is inactive: 0.132.

For the sequence CCCTCTAA, the “PBM E-score” value is inactive: -0.144.

With CAACTCGC, the “PBM E-score” value was inactive: 0.0673.

Turning to AGACGGTC, the “PBM E-score” value was inactive: -0.146.

Regarding TGAGAGAA, the “PBM E-score” value is inactive: -0.0365.

On to CACGTACG, for which the “PBM E-score” value was inactive: 0.0711.

With CCGGGCAG, the “PBM E-score” value was inactive: -0.2.

For the sequence CAGCCGCG, the “PBM E-score” value is inactive: -0.205.

ATACAGTA: the “PBM E-score” value is at least 0.238.

With AAGCGTTG, the “PBM E-score” value was inactive: 0.016.

On to CTATAGCA, for which the “PBM E-score” value is inactive: -0.00614.

For AGGAGAGC, the “PBM E-score” value was inactive: -0.0646.

In the case of AGAAGACA, the “PBM E-score” value was inactive: 0.147.

For the sequence CGGAGCCC, the “PBM E-score” value is inactive: -0.335.

As for TATTTCCA, the “PBM E-score” value is inactive: 0.0618.

For CGTGGTAC, the “PBM E-score” value is inactive: 0.139.

As for TCCATACA, the “PBM E-score” value was inactive: 0.139.

In the case of AAAAATGG, the “PBM E-score” value is inactive: 0.0677.

On to ACTTGACC, for which the “PBM E-score” value was inactive: -0.0545.

In the case of ACCGTGAC, the “PBM E-score” value was inactive: 0.0634.

As for AGCGTCTC, the “PBM E-score” value was inactive: -0.163.

For AAGGACCG, the “PBM E-score” value is inactive: -0.18.

For CAGCGTAG, the “PBM E-score” value is inactive: -0.0479.

As for CATGTCGG, the “PBM E-score” value is active: 0.357.

Consider GACACGTA, for which the “PBM E-score” value was active: 0.348.

For the sequence GGCTCACA, the “PBM E-score” value is inactive: -0.0663.

With CCTCCGTA, the “PBM E-score” value is inactive: -0.118.

In the case of AGTCCTAG, the “PBM E-score” value was inactive: -0.0619.

In the case of GAGTATGC, the “PBM E-score” value was inactive: 0.0129.

CTACTTAA: the “PBM E-score” value is inactive: -0.00454.

For CATTCAAG, the “PBM E-score” value was inactive: -0.0431.

As for CCTCCTGA, the “PBM E-score” value was inactive: -0.0907.

With CATCGAGC, the “PBM E-score” value was inactive: -0.0628.

Take CAGTCGTC: the “PBM E-score” value is inactive: -0.114.

Turning to GAATGGCC, the “PBM E-score” value was inactive: -0.151.

As for CTCCGGTC, the “PBM E-score” value is inactive: -0.212.

For the sequence GGACTTAC, the “PBM E-score” value is inactive: 0.00601.

On to CCGGTCCG, for which the “PBM E-score” value is inactive: -0.27.

As to CCCGTCTC, the “PBM E-score” value is inactive: -0.23.

Consider TCCGAGGA, for which the “PBM E-score” value is inactive: -0.0519.

Turning to ATGAGATA, the “PBM E-score” value was inactive: 0.0316.

As for GTCATGTA, the “PBM E-score” value was active: 0.43.

As for GCGATCAA, the “PBM E-score” value is inactive: 0.0681.

Take TCAATCCA: the “PBM E-score” value was inactive: 0.0169.

Turning to CTAAGCAG, the “PBM E-score” value was inactive: -0.0907.

With ATGGGTTG, the “PBM E-score” value was inactive: 0.0997.

In the case of GCACCCAA, the “PBM E-score” value is inactive: -0.162.

In the case of AGCTAGAC, the “PBM E-score” value was inactive: -0.121.

For the sequence ACGAGCCT, the “PBM E-score” value was inactive: -0.0401.

On to ACCAGCAA, for which the “PBM E-score” value is inactive: 0.0242.

For CTACCCTC, the “PBM E-score” value is inactive: -0.192.

AGCGTATC: the “PBM E-score” value is inactive: -0.0326.

For GCCCTCGA, the “PBM E-score” value was inactive: -0.164.

Consider CGTAGGCC, for which the “PBM E-score” value is inactive: -0.133.

Turning to GATTGGCA, the “PBM E-score” value is inactive: -0.0454.

In the case of ATCGTAGC, the “PBM E-score” value was inactive: 0.0466.

Turning to GACAACTA, the “PBM E-score” value was inactive: 0.299.

Regarding AAGCATAA, the “PBM E-score” value was inactive: 0.0796.

For GATGCTAA, the “PBM E-score” value is inactive: -0.0224.

For the sequence ACTCCGGC, the “PBM E-score” value is inactive: -0.186.

For ACGGCGAC, the “PBM E-score” value was inactive: -0.12.

With AATTTAGG, the “PBM E-score” value is inactive: 0.0519.

In the case of AGTGTGAA, the “PBM E-score” value was at least 0.151.

With AGCGTCCG, the “PBM E-score” value was inactive: -0.102.

For the sequence GAATGTTA, the “PBM E-score” value was inactive: 0.234.

With ATGCATCG, the “PBM E-score” value was inactive: 0.108.

In the case of AAAGAGAC, the “PBM E-score” value was inactive: -0.0571.

On to CCAGCAAC, for which the “PBM E-score” value is inactive: -0.0279.

For the sequence CGGATTTA, the “PBM E-score” value is inactive: -0.0143.

With AGACATAC, the “PBM E-score” value is inactive: 0.222.

On to AGAGGCAT, for which the “PBM E-score” value was inactive: -0.106.

On to CTAACGGC, for which the “PBM E-score” value was inactive: -0.128.

For CGACGGGC, the “PBM E-score” value is inactive: -0.184.

As to CATTCGCG, the “PBM E-score” value is inactive: -0.043.

For the sequence AATCGGGC, the “PBM E-score” value is inactive: -0.00822.

Consider ACCTTAAT, for which the “PBM E-score” value is at least 0.0103.

As to CAATTCAA, the “PBM E-score” value is inactive: 0.101.

Regarding CAAGCATG, the “PBM E-score” value was inactive: 0.151.

As to ATGACTCG, the “PBM E-score” value was inactive: 0.0179.

Consider ACACGAGC, for which the “PBM E-score” value was inactive: 0.172.

Regarding ATTTAAAT, the “PBM E-score” value is inactive: 0.0982.

For the sequence GGATTGCC, the “PBM E-score” value was inactive: -0.17.

For AGATAAAG, the “PBM E-score” value was inactive: 0.00787.

As for ACAATCCA, the “PBM E-score” value is at least 0.156.

For the sequence AACTTAGC, the “PBM E-score” value is inactive: -0.0396.

Consider CAGCTGCC, for which the “PBM E-score” value is inactive: -0.215.

With AGTGTTTA, the “PBM E-score” value was inactive: 0.176.

Turning to CCCTTTGC, the “PBM E-score” value is inactive: -0.0352.

For the sequence ATTTCGGC, the “PBM E-score” value is inactive: -0.0153.

Regarding ATTGGACG, the “PBM E-score” value was inactive: -0.0389.

Regarding GTATATAA, the “PBM E-score” value was inactive: 0.238.

Turning to AGAGAAAA, the “PBM E-score” value is inactive: -0.0236.

In the case of ACTTTGCC, the “PBM E-score” value was inactive: -0.0656.

With AGTGACGG, the “PBM E-score” value is inactive: -0.076.

CACTACGG: the “PBM E-score” value was inactive: -0.0927.

In the case of ACGACGGC, the “PBM E-score” value was inactive: -0.0299.

With ACATATAT, the “PBM E-score” value was active: 0.343.

On to TCCGATCA, for which the “PBM E-score” value is inactive: 0.0958.

For GTCAGTGA, the “PBM E-score” value was inactive: 0.022.

As to AATTGAGT, the “PBM E-score” value is inactive: 0.131.

Take CGGTGCCC: the “PBM E-score” value is inactive: -0.222.

CTGTAACA: the “PBM E-score” value is inactive: 0.289.

Take AAAAAAGT: the “PBM E-score” value is inactive: 0.0511.

For the sequence AAGGTCAT, the “PBM E-score” value is inactive: -0.00089.

Regarding CCACATCA, the “PBM E-score” value was inactive: 0.00518.

With ACTCTGTG, the “PBM E-score” value was inactive: 0.0887.
